Measured values reported in the supplement of paper PMC4967469.
IC50 is the fitted dose that halves viability relative to control wells, and lower means more sensitive; where the fit passes the top or lowest dose, that dose stands as a limit. AUC sums up the same curve from the lowest dose to the 256-fold higher top dose; values near 1 show little effect. For part of these data: The top dose, if marked as inferred, comes from the curve model; the source does not state it.

How the values were obtained:
Experiment in all cases: Viability of human cancer cell lines after 72 h of drug (GDSC screen)
Axitinib = compound: CNC(=O)c1ccccc1Sc1ccc2c(/C=C/c3ccccn3)n[nH]c2c1 [Axitinib]; details: top dose 2 µM
Experimental: (§1)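 Human cancer cell lines in 384-well plates, medium with 10% serum, drug for 72 h over a 256-fold dose range (nine 2-fold or five 4-fold steps up to the top dose). Adherent lines were fixed and stained with the nucleic acid dye Syto60, suspension lines read with resazurin; signal relative to control wells, capped at 0 and 100%. One two-parameter sigmoid per drug and line, fitted in a mixed model over all curves with the slope shared within a line.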

Vorinostat = compound: O=C(CCCCCCC(=O)Nc1ccccc1)NO [Vorinostat]; details: top dose 10 µM
Experimental: as §1

Dabrafenib = compound: CC(C)(C)c1nc(-c2cccc(NS(=O)(=O)c3c(F)cccc3F)c2F)c(-c2ccnc(N)n2)s1 [Dabrafenib]; details: top dose 10 µM
Experimental: as §1

SN-38 = compound: CCc1c2c(nc3ccc(O)cc13)-c1cc3c(c(=O)n1C2)COC(=O)[C@]3(O)CC [SN-38]; details: top dose 0.05 µM; top dose inferred
Experimental: as §1

Methotrexate = compound: CN(Cc1cnc2nc(N)nc(N)c2n1)c1ccc(C(=O)N[C@@H](CCC(=O)O)C(=O)O)cc1 [Methotrexate]; details: top dose 0.2 µM
Experimental: as §1

LN-18 (glioma, adherent) gave an AUC (Axitinib) of 0.978, an IC50 (Axitinib) of over 2 µM and an AUC (Vorinostat) of 0.787. The IC50 (Vorinostat) was 3.48 µM, the AUC (Dabrafenib) was 0.992 and the IC50 (Dabrafenib) was over 10 µM. It also gave an AUC (SN-38) of 0.842, an IC50 (SN-38) of 0.0256 µM and an AUC (Methotrexate) of 0.907. For the same cell line, the IC50 (Methotrexate) was 0.182 µM.
CCK-81 (large intestine, adherent) gave an AUC (Axitinib) of 0.969, an IC50 (Axitinib) of over 2 µM and an AUC (Vorinostat) of 0.755. It also gave an IC50 (Vorinostat) of 3.2 µM, an AUC (Dabrafenib) of 0.986 and an IC50 (Dabrafenib) of over 10 µM. The AUC (SN-38) was 0.9, the IC50 (SN-38) was over 0.05 µM and the AUC (Methotrexate) was 0.949. For the same cell line, the IC50 (Methotrexate) was over 0.2 µM.
In the case of COLO-684 (endometrium, suspension), the AUC (Axitinib) is reported as 0.953, the IC50 (Axitinib) is reported as over 2 µM and the AUC (Vorinostat) is reported as 0.827. For the same cell line, the IC50 (Vorinostat) was 7.14 µM, the AUC (Dabrafenib) was 0.983 and the IC50 (Dabrafenib) was over 10 µM. The AUC (SN-38) was 0.909, the IC50 (SN-38) was over 0.05 µM and the AUC (Methotrexate) was 0.573. The IC50 (Methotrexate) was 0.0203 µM.
Cell Line “COLO-678 (large intestine, semi-adherent)” has an AUC (Axitinib) of 0.98, an IC50 (Axitinib) of over 2 µM and an AUC (Vorinostat) of 0.904. The IC50 (Vorinostat) was over 10 µM, the AUC (Dabrafenib) was 0.955 and the IC50 (Dabrafenib) was over 10 µM. It also gave an AUC (SN-38) of 0.893, an IC50 (SN-38) of over 0.05 µM and an AUC (Methotrexate) of 0.978. It also gave an IC50 (Methotrexate) of over 0.2 µM.
Work on “COLO-320-HSR (large intestine, suspension)” yielded an AUC (Axitinib) of 0.951, an IC50 (Axitinib) of over 2 µM and an AUC (Vorinostat) of 0.529. The IC50 (Vorinostat) was 0.74 µM, the AUC (Dabrafenib) was 0.991 and the IC50 (Dabrafenib) was over 10 µM. The AUC (SN-38) was 0.897, the IC50 (SN-38) was 0.0476 µM and the AUC (Methotrexate) was 0.583. It also gave an IC50 (Methotrexate) of 0.0205 µM.
“EMC-BAC-1 (lung adenocarcinoma, adherent)” was tested, and the AUC (Axitinib) was 0.924, the IC50 (Axitinib) was over 2 µM and the AUC (Vorinostat) was 0.564. For the same cell line, the IC50 (Vorinostat) was 0.961 µM, the AUC (Dabrafenib) was 0.952 and the IC50 (Dabrafenib) was over 10 µM. It also gave an AUC (SN-38) of 0.726, an IC50 (SN-38) of 0.0152 µM and an AUC (Methotrexate) of 0.781. For the same cell line, the IC50 (Methotrexate) was 0.0956 µM.
In the case of “LU-134-A (small cell lung carcinoma, suspension)”, the AUC (Axitinib) is reported as 0.97, the IC50 (Axitinib) is reported as over 2 µM and the AUC (Vorinostat) is reported as 0.686. The IC50 (Vorinostat) was 2.16 µM, the AUC (Dabrafenib) was 0.975 and the IC50 (Dabrafenib) was over 10 µM. The AUC (SN-38) was 0.634, the IC50 (SN-38) was 0.00751 µM and the AUC (Methotrexate) was 0.922. It also gave an IC50 (Methotrexate) of over 0.2 µM.
SNU-61 (large intestine, adherent) was tested, and the AUC (Axitinib) was 0.955, the IC50 (Axitinib) was over 2 µM and the AUC (Vorinostat) was 0.774. The IC50 (Vorinostat) was 5.22 µM, the AUC (Dabrafenib) was 0.976 and the IC50 (Dabrafenib) was over 10 µM. It also gave an AUC (SN-38) of 0.98, an IC50 (SN-38) of over 0.05 µM and an AUC (Methotrexate) of 0.982. For the same cell line, the IC50 (Methotrexate) was over 0.2 µM.
With PC-14 (lung adenocarcinoma, adherent) the AUC (Axitinib) was 0.99, the IC50 (Axitinib) was over 2 µM and the AUC (Vorinostat) was 0.76. For the same cell line, the IC50 (Vorinostat) was 3.17 µM, the AUC (Dabrafenib) was 0.985 and the IC50 (Dabrafenib) was over 10 µM. For the same cell line, the AUC (SN-38) was 0.667, the IC50 (SN-38) was 0.00862 µM and the AUC (Methotrexate) was 0.915. The IC50 (Methotrexate) was over 0.2 µM.
Cell Line CAS-1 (glioma, adherent) has an AUC (Axitinib) of 0.924, an IC50 (Axitinib) of over 2 µM and an AUC (Vorinostat) of 0.892. It also gave an IC50 (Vorinostat) of over 10 µM, an AUC (Dabrafenib) of 0.978 and an IC50 (Dabrafenib) of over 10 µM. For the same cell line, the AUC (SN-38) was 0.872, the IC50 (SN-38) was over 0.05 µM and the AUC (Methotrexate) was 0.981. It also gave an IC50 (Methotrexate) of over 0.2 µM.
In the case of “NCI-H1693 (lung adenocarcinoma, adherent)”, the AUC (Axitinib) is reported as 0.957, the IC50 (Axitinib) is reported as over 2 µM and the AUC (Vorinostat) is reported as 0.826. The IC50 (Vorinostat) was over 10 µM, the AUC (Dabrafenib) was 0.946 and the IC50 (Dabrafenib) was over 10 µM. The AUC (SN-38) was 0.649, the IC50 (SN-38) was 0.0104 µM and the AUC (Methotrexate) was 0.966. For the same cell line, the IC50 (Methotrexate) was over 0.2 µM.
With “NCI-H650 (lung adenocarcinoma, adherent)” the AUC (Axitinib) was 0.986, the IC50 (Axitinib) was over 2 µM and the AUC (Vorinostat) was 0.75. The IC50 (Vorinostat) was 3.56 µM, the AUC (Dabrafenib) was 0.888 and the IC50 (Dabrafenib) was over 10 µM. For the same cell line, the AUC (SN-38) was 0.764, the IC50 (SN-38) was 0.02 µM and the AUC (Methotrexate) was 0.91. The IC50 (Methotrexate) was over 0.2 µM.
